Assay results as given in PubChem BioAssay AID504832 (National Center for Advancing Translational Sciences (NCATS), 2011).
Out of some 310,000 compounds screened, about 18,000 (5.8%) were called active. Inconclusive means that the source gave no clear call. Such entries were picked first, then a sample of the others. The call rests on the fitted dose curve; in most records, active means well fitted inhibition curve with a large enough effect; inconclusive means small, poorly fitted or top-dose-only effect, or another doubt; inactive means no such curve, though single readings can be large or run the other way. Potencies of inconclusive entries are left out as doubtful fits.
Potency means the concentration at half of the fitted maximal effect; tags describe the fitted curve by direction and shape.

Assay: Primary qHTS for delayed death inhibitors of the malarial parasite plastid, 48 hour incubation
Settings: P. falciparum luciferase growth in erythrocytes; series mostly up to 28.7 µM
Procedure, shortened: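 Parasite viability was followed by luminescence of a genomically integrated firefly luciferase. Cultures held 0.1% parasitemia at 2% hematocrit (final), incubated under 5% CO2 at 37 C.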
For `O=C(CCNC(=O)c1ccc(Br)cc1)NCC1COc2ccccc2O1` (stereo not given), the Potency was inconclusive [inhibitor, full curve, poor fit].
In the case of `Cn1c(SCC(=O)N/N=C/c2ccncc2)nc2ccccc21`, the Potency is reported as inconclusive [inhibitor, full curve, poor fit].
For `CC(=O)Nc1ccc(NC(=O)C(C)Sc2nc3ccccc3c(=O)n2CC2CCCO2)cc1` (stereo not given), the Potency was inconclusive [inhibitor, single point].
With `COc1ccc(CCNC(=O)c2ccc(N(C)S(=O)(=O)c3ccccc3)cc2)cc1` the Potency was active: 2.08 µM.
In the case of `CCC(C)(C)NC(=O)CN(C(=O)CCC(=O)Nc1nccs1)c1cccc(C)c1`, the Potency is reported as inconclusive [inhibitor, single point].
In the case of `Cc1ccc(C(=O)N/C(=C\c2ccc(-c3ccccc3[N+](=O)[O-])o2)C(=O)NCCN(C)C)cc1`, the Potency is reported as active: 1.47 µM.
For `CC(C)C(=O)Nc1ccc2oc(-c3cc(F)c(F)cc3Cl)nc2c1`, the Potency was inconclusive [inhibitor, single point].
With `Cc1csc(NC(=O)CSc2nc(C(C)C)nc3ccccc23)n1` the Potency was “inactive”.
In the case of `CCOCc1c(C(=O)N2CCN(CC(=O)Nc3ccc(F)cc3)CC2)oc2ccccc12`, the Potency is reported as inconclusive [inhibitor, single point].
With `COc1cccc(CNC(=S)Nc2cccc(Cl)c2C)c1` the Potency was inconclusive [inhibitor, partial curve, poor fit].
For `COCc1cc(=O)n2[nH]c(-c3cccc(Br)c3)cc2n1`, the Potency was “inactive”.
In the case of `CC(C)NC(=S)NCc1cccs1`, the Potency is reported as “inactive”.
For `Cc1ccc(NC(=O)COC(=O)c2cccnc2)c(C)c1`, the Potency was inconclusive [inhibitor, partial curve].
In the case of `CC(C(=O)N1c2ccccc2CC1C)N1CCN(S(=O)(=O)c2ccccc2F)CC1` (stereo not given), the Potency is reported as active: 13.1 µM.
For `CCN(CC(=O)NC(=O)NC1CCCC1)Cc1ccccc1`, the Potency was “inactive”.
In the case of `COc1cc(C(=O)Nc2cccc(C(C)=O)c2)cc(OC)c1OC`, the Potency is reported as “inactive”.
With `COc1cc(C(=O)N2CCC(NC(=O)C(Cc3ccccc3C)NC(C)=O)CC2)cc(OC)c1OC` (stereo not given) the Potency was inconclusive [inhibitor, partial curve, poor fit].
In the case of `CCC(C)(C)n1nnnc1C(c1ccc2ncccc2c1)N1CCCC(C)C1` (stereo not given), the Potency is reported as inconclusive [inhibitor, single point].
With `Oc1ccc(/C=N/N2CCN(C3c4ccccc4-c4ccccc43)CC2)cc1O` the Potency was inconclusive [inhibitor, partial curve, poor fit].
With `O=C(OCCN1CCOCC1)c1cccnc1` the Potency was inconclusive [inhibitor, partial curve, poor fit].
In the case of `CCn1c(SCC(=O)N2c3ccccc3Sc3ccccc32)nnc1-c1ccco1`, the Potency is reported as inconclusive [inhibitor, single point].
In the case of `CCOc1ccccc1/C=N/NC(=O)c1cccc(S(=O)(=O)N(CC)CC)c1`, the Potency is reported as “inactive”.
With `CSc1cccc(NC(=O)OC2CCCCCCCCCCC2)c1` the Potency was inconclusive [inhibitor, single point].
For `CCn1nc(C(=O)Nc2cccc3ccccc23)c(Cl)c1Cl`, the Potency was “inactive”.
In the case of `CCCn1c(N)c(C(=O)CSc2ncnc3sccc23)c(=O)n(C)c1=O`, the Potency is reported as inconclusive [inhibitor, single point].
For `Cc1ccccc1C(=O)NC(=S)Nc1ccc2[nH]c(=O)[nH]c2c1`, the Potency was “inactive”.
For `COc1ccc(C(=O)CCC(C)(C)[N+](=O)[O-])cc1OC`, the Potency was inconclusive [inhibitor, single point].
In the case of `CN1CCN(NC(=O)c2cc(S(=O)(=O)Nc3ccc(Cl)cc3)ccc2Cl)CC1`, the Potency is reported as “inactive”.
With `COc1ccc(CCC(=O)N2CCN(S(=O)(=O)c3cccc(Cl)c3)CC2)cc1` the Potency was inconclusive [inhibitor, single point].
In the case of `CCOC(=O)C1CCN(S(=O)(=O)c2ccc3[nH]c(=O)c(=O)[nH]c3c2)CC1`, the Potency is reported as “inactive”.
In the case of `COc1ccc(OCCN(C)Cc2c(O)ccc3ccccc23)cc1`, the Potency is reported as “inactive”.
With `C[C@H](c1ccccc1)n1nnc(COCc2ccccc2)c1C#CCOCc1ccccc1` the Potency was inconclusive [inhibitor, partial curve, poor fit].
In the case of `COC(=O)c1sc(C(C)(C)C)cc1CS(=O)(=O)c1ccccn1`, the Potency is reported as inconclusive [inhibitor, partial curve, poor fit].
With `COc1ccccc1-n1c(SCC(=O)O)nc2sc3c(c2c1=O)CCC3` the Potency was “inactive”.
For `COCCOC(=O)C1=C(C)N=C2SCCC(=O)N2C1/C=C/c1ccccc1` (stereo not given), the Potency was inconclusive [inhibitor, single point].
With `CC(Sc1cccc(C(F)(F)F)c1)C(=O)NC(N)=O` (stereo not given) the Potency was “inactive”.
With `O=S(=O)(c1ccccc1)N1CCN(Cc2cc3c(cc2Br)OCCO3)CC1` the Potency was inconclusive [inhibitor, single point].
For `C/C(=N\NC(=O)c1cccs1)c1ccc(C(=O)O)s1`, the Potency was “inactive”.
For `Cc1ccc2nc(-c3ccccc3)cc(C(=O)N3CCN(S(=O)(=O)c4c(C)noc4C)CC3)c2c1`, the Potency was active: 11.7 µM.
In the case of `OCCNCc1cc(Br)ccc1OCc1ccc(F)cc1`, the Potency is reported as inconclusive [inhibitor, single point].
For `CCOC(=O)c1ccc(Nc2ccc(-c3ccc(OC)c(OC)c3)nn2)cc1`, the Potency was active: 11.7 µM.
For `CC(C)(CO)NC(=O)CC1C(=O)NCCN1Cc1ccc(-c2ccccc2)cc1` (stereo not given), the Potency was inconclusive [inhibitor, full curve, poor fit].
In the case of `CNC(=O)COC(=O)c1ccccc1Nc1ccccc1`, the Potency is reported as “inactive”.
With `CN1CCN(C(=O)/C(=C/c2cn(S(=O)(=O)N(C)C)c3ccccc23)NC(=O)c2ccccc2Cl)CC1` the Potency was inconclusive [inhibitor, partial curve, poor fit].
With `Cc1cc(C(=O)N/N=C/c2c(CO)cnc(C)c2O)c2ccccc2n1` the Potency was inconclusive [inhibitor, single point].
For `Cc1cc(=O)[nH]c(SCc2ccccc2)n1`, the Potency was active: 11.7 µM.
For `COc1ccc(/C=N/NC(=O)c2ccncc2)cc1Cn1nc([N+](=O)[O-])c(Br)c1C`, the Potency was inconclusive [inhibitor, full curve, poor fit].
For `CC(C)NS(=O)(=O)c1ccc(OCC(=O)N2CCN(Cc3ccc4c(c3)OCO4)CC2)c(Cl)c1`, the Potency was inconclusive [inhibitor, partial curve].
In the case of `COC(=O)C1=C(c2cccc(C#N)c2)C[C@@H]2CC[C@H]1N2C(=O)NC1CCCCC1`, the Potency is reported as inconclusive [inhibitor, single point].
With `Cc1ccc(N2CC(C(=O)Nc3nnc(SCc4ccccn4)s3)CC2=O)cc1` (stereo not given) the Potency was inconclusive [inhibitor, single point].
In the case of `CC(C)C(C)NC(=O)COc1ccc(Sc2ccc(OCC(=O)NC(C)C(C)C)cc2)cc1` (stereo not given), the Potency is reported as inconclusive [inhibitor, partial curve].
With `COC(=O)c1cc2oc(C)cc2n1CC(=O)N1CCCc2ccccc21` the Potency was inconclusive [inhibitor, single point].
In the case of `CCOC(=O)c1sc(NNC(=O)c2ccc(C)cc2)nc1C`, the Potency is reported as inconclusive [inhibitor, single point].
For `COc1ccc(-n2c(Cc3cccn3C)nnc2SCC(=O)NCC2CCCO2)cc1` (stereo not given), the Potency was “inactive”.
In the case of `COc1cccc(-n2c(/C=C/c3ccc(O)c(O)c3)nc3ccccc3c2=O)c1`, the Potency is reported as inconclusive [inhibitor, full curve].
For `Cc1ccc(CCNC(=O)c2c[nH]c3ccc(S(=O)(=O)Nc4ccc(C)cc4C)cc3c2=O)cc1`, the Potency was inconclusive [inhibitor, single point].
In the case of `COC(=O)c1cc(OC)nc2ccc(Br)cc12`, the Potency is reported as inconclusive [inhibitor, single point].
For `CCc1ccccc1OCC(=O)Nc1cccc(S(=O)(=O)NCc2ccco2)c1`, the Potency was inconclusive [inhibitor, single point].
With `COc1ccc(C)cc1NC(=O)CN(C)S(=O)(=O)c1ccc2c(c1)n(C)c(=O)c(=O)n2C` the Potency was inconclusive [inhibitor, single point].
For `CC(C)OC(=O)/C(=C/c1ccc(Br)cc1)NC(=O)c1ccco1`, the Potency was “inactive”.
For `Cc1ccc(C(=O)N/C(=C\c2cn(S(=O)(=O)N(C)C)c3ccccc23)C(=O)NCCN2CCOCC2)cc1`, the Potency was inconclusive [inhibitor, partial curve, poor fit].
In the case of `Cc1ccc(NC(=O)CSc2ccc(-c3ccco3)nn2)c(C)c1`, the Potency is reported as “inactive”.
With `CCN1CCN(c2ccc(NC(=O)c3ccc4c(c3)[nH]c(=O)n4Cc3ccc(OC)cc3)cc2)CC1` the Potency was inconclusive [inhibitor, single point].
With `OC(CNC1CCCC1)COCCOc1ccc(Br)cc1` (stereo not given) the Potency was “inactive”.
For `O=C(Nc1cccc(F)c1)Nc1ccccn1`, the Potency was “inactive”.
For `CCOC(=O)N1CCN(C(=O)COC(=O)C2CCN(S(=O)(=O)c3ccc(C)c(C)c3)CC2)CC1`, the Potency was “inactive”.
With `NC(N)=N/N=C/c1ccc(Cl)cc1Cl` the Potency was inconclusive [inhibitor, full curve].
For `CSc1ccccc1NC(=O)CN(C)C(=O)c1cccc(S(=O)(=O)N(C)C)c1`, the Potency was inconclusive [inhibitor, partial curve, poor fit].
For `COc1cc2nc(CN3CCN(S(=O)(=O)c4c(F)cccc4F)CC3)[nH]c(=O)c2cc1OC`, the Potency was active: 10.4 µM.
With `Cc1ccc(NC(=O)c2cc([N+](=O)[O-])ccc2NCc2cccnc2)cc1` the Potency was active: 13.1 µM.
